# Measurements reported in the supplement of paper PMC8728848.
# This is one part of the list.
# B1: CBM32-1 (Clostridium perfringens) (protein)
# chain: MGSSHHHHHHSSGLVPRGSHMASGVEITEGVTVTAKGNTEGNTADLAIDGDLSTYWESSNDYKWIEVDLGGIYELSKIEIFNKDEAVYKYNIYASEDGENFNKIAYKNNDNVSDSNGNVHTIDNVRAGKIRIDVVQNSNSDRVNIAEINVFG
# How the values were obtained:
# Assay in all cases: glycan array binding signal (z-score within array); higher = stronger binding
# Conditions in all cases: glycan notation: IUPAC condensed, linker removed
# Gal3S(b1-4)GlcNAc = molecular target: Gal3S(b1-4)GlcNAc
# Method in brief: (§1)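 The binding signal is a Z-score computed within each array and averaged over linkers. Arrays of the same protein sequence at different concentrations or buffers were also averaged together. Data originate from 3228 arrays in the Consortium for Functional Glycomics database, kept only where the protein sequence was available.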
# Gal3S(b1-4)GlcNAc6S = molecular target: Gal3S(b1-4)GlcNAc6S
# Method in brief: as §1
# [1] = molecular target: Gal3S(b1-4)[Fuc(a1-3)]Glc
# Method in brief: as §1
# Gal3S4S(b1-4)GlcNAc = molecular target: Gal3S4S(b1-4)GlcNAc
# Method in brief: as §1
# Gal3S6S(b1-4)GlcNAc = molecular target: Gal3S6S(b1-4)GlcNAc
# Method in brief: as §1
# Gal3S6S(b1-4)GlcNAc6S = molecular target: Gal3S6S(b1-4)GlcNAc6S
# Method in brief: as §1
# Gal4S(b1-4)GlcNAc = molecular target: Gal4S(b1-4)GlcNAc
# Method in brief: as §1
# Gal4S6S(b1-4)GlcNAc = molecular target: Gal4S6S(b1-4)GlcNAc
# Method in brief: as §1
# Gal6S(b1-4)Glc = molecular target: Gal6S(b1-4)Glc
# Method in brief: as §1
# Gal6S(b1-4)Glc6S = molecular target: Gal6S(b1-4)Glc6S
# Method in brief: as §1
# Gal6S(b1-4)GlcNAc = molecular target: Gal6S(b1-4)GlcNAc
# Method in brief: as §1
# Gal6S(b1-4)GlcNAc6S = molecular target: Gal6S(b1-4)GlcNAc6S
# Method in brief: as §1
# GalNAc(a1-3)Gal = molecular target: GalNAc(a1-3)Gal
# Method in brief: as §1
# GalNAc(a1-3)GalNAc = molecular target: GalNAc(a1-3)GalNAc
# Method in brief: as §1
# GalNAc(b1-3)Gal = molecular target: GalNAc(b1-3)Gal
# Method in brief: as §1
# [2] = molecular target: GalNAc(b1-3)Gal(a1-4)Gal(b1-4)GlcNAc
# Method in brief: as §1
# GalNAc(b1-3)GalNAc = molecular target: GalNAc(b1-3)GalNAc
# Method in brief: as §1
# GalNAc(b1-4)GlcNAc = molecular target: GalNAc(b1-4)GlcNAc
# Method in brief: as §1
# Glc(a1-4)Glc = molecular target: Glc(a1-4)Glc
# Method in brief: as §1
# Glc(a1-6)Glc(a1-6)Glc = molecular target: Glc(a1-6)Glc(a1-6)Glc
# Method in brief: as §1
# Glc(b1-4)Glc = molecular target: Glc(b1-4)Glc
# Method in brief: as §1
# Glc(b1-6)Glc = molecular target: Glc(b1-6)Glc
# Method in brief: as §1
# GlcA(b1-3)Gal = molecular target: GlcA(b1-3)Gal
# Method in brief: as §1
# GlcA(b1-3)GlcNAc = molecular target: GlcA(b1-3)GlcNAc
# Method in brief: as §1
# GlcA(b1-6)Gal = molecular target: GlcA(b1-6)Gal
# Method in brief: as §1
# [3] = molecular target: GlcNAc(a1-3)Gal(b1-4)GlcNAc
# Method in brief: as §1
# [4] = molecular target: GlcNAc(a1-6)Gal(b1-4)GlcNAc
# Method in brief: as §1
# [5] = molecular target: GlcNAc(b1-2)Gal(b1-3)GalNAc
# Method in brief: as §1
# [6] = molecular target: GlcNAc(b1-2)Man(a1-3)[GlcNAc(b1-2)Man(a1-6)]Man(b1-4)GlcNAc(b1-4)GlcNAc
# Method in brief: as §1
# GlcNAc(b1-3)Gal = molecular target: GlcNAc(b1-3)Gal
# Method in brief: as §1
# [7] = molecular target: GlcNAc(b1-3)Gal(b1-3)GalNAc
# Method in brief: as §1
# GlcNAc(b1-3)Gal(b1-4)Glc = molecular target: GlcNAc(b1-3)Gal(b1-4)Glc
# Method in brief: as §1
# [8] = molecular target: GlcNAc(b1-3)Gal(b1-4)GlcNAc
# Method in brief: as §1
# [9] = molecular target: GlcNAc(b1-3)Gal(b1-4)GlcNAc(b1-3)Gal(b1-4)GlcNAc
# Method in brief: as §1
# GlcNAc(b1-3)GalNAc = molecular target: GlcNAc(b1-3)GalNAc
# Method in brief: as §1
# GlcNAc(b1-3)Man = molecular target: GlcNAc(b1-3)Man
# Method in brief: as §1
# [10] = molecular target: GlcNAc(b1-3)[GlcNAc(b1-4)][GlcNAc(b1-6)]GlcNAc
# Method in brief: as §1
# [11] = molecular target: GlcNAc(b1-3)[GlcNAc(b1-6)]Gal(b1-4)GlcNAc
# Method in brief: as §1
# [12] = molecular target: GlcNAc(b1-3)[GlcNAc(b1-6)]GalNAc
# Method in brief: as §1
# [13] = molecular target: GlcNAc(b1-4)Gal(b1-4)GlcNAc
# Method in brief: as §1
# GlcNAc(b1-4)GlcNAc = molecular target: GlcNAc(b1-4)GlcNAc
# Method in brief: as §1
# [14] = molecular target: GlcNAc(b1-4)GlcNAc(b1-4)GlcNAc
# Method in brief: as §1
# [15] = molecular target: GlcNAc(b1-4)GlcNAc(b1-4)GlcNAc(b1-4)GlcNAc(b1-4)GlcNAc
# Method in brief: as §1
# [16] = molecular target: GlcNAc(b1-4)GlcNAc(b1-4)GlcNAc(b1-4)GlcNAc(b1-4)GlcNAc(b1-4)GlcNAc
# Method in brief: as §1
# [17] = molecular target: GlcNAc(b1-4)[GlcNAc(b1-6)]GalNAc
# Method in brief: as §1
binder,measurement,setting,value
B1,glycan array binding signal (z-score),Gal3S(b1-4)GlcNAc,-0.08
same,glycan array binding signal (z-score),Gal3S(b1-4)GlcNAc6S,1.09
same,glycan array binding signal (z-score),[1],-0.631
same,glycan array binding signal (z-score),Gal3S4S(b1-4)GlcNAc,0.674
same,glycan array binding signal (z-score),Gal3S6S(b1-4)GlcNAc,0.801
same,glycan array binding signal (z-score),Gal3S6S(b1-4)GlcNAc6S,5.08
same,glycan array binding signal (z-score),Gal4S(b1-4)GlcNAc,-0.004
same,glycan array binding signal (z-score),Gal4S6S(b1-4)GlcNAc,0.619
same,glycan array binding signal (z-score),Gal6S(b1-4)Glc,0.513
same,glycan array binding signal (z-score),Gal6S(b1-4)Glc6S,4.39
same,glycan array binding signal (z-score),Gal6S(b1-4)GlcNAc,0.342
same,glycan array binding signal (z-score),Gal6S(b1-4)GlcNAc6S,-0.845
same,glycan array binding signal (z-score),GalNAc(a1-3)Gal,0.085
same,glycan array binding signal (z-score),GalNAc(a1-3)GalNAc,-0.173
same,glycan array binding signal (z-score),GalNAc(b1-3)Gal,-0.03
same,glycan array binding signal (z-score),[2],-0.689
same,glycan array binding signal (z-score),GalNAc(b1-3)GalNAc,-0.822
same,glycan array binding signal (z-score),GalNAc(b1-4)GlcNAc,0.264
same,glycan array binding signal (z-score),Glc(a1-4)Glc,-0.843
same,glycan array binding signal (z-score),Glc(a1-6)Glc(a1-6)Glc,-0.279
same,glycan array binding signal (z-score),Glc(b1-4)Glc,1.96
same,glycan array binding signal (z-score),Glc(b1-6)Glc,-0.325
same,glycan array binding signal (z-score),GlcA(b1-3)Gal,-0.266
same,glycan array binding signal (z-score),GlcA(b1-3)GlcNAc,0.008
same,glycan array binding signal (z-score),GlcA(b1-6)Gal,0.678
same,glycan array binding signal (z-score),[3],1.11
same,glycan array binding signal (z-score),[4],-0.462
same,glycan array binding signal (z-score),[5],-0.168
same,glycan array binding signal (z-score),[6],-0.126
same,glycan array binding signal (z-score),GlcNAc(b1-3)Gal,-0.113
same,glycan array binding signal (z-score),[7],0.127
same,glycan array binding signal (z-score),GlcNAc(b1-3)Gal(b1-4)Glc,-0.257
same,glycan array binding signal (z-score),[8],-0.271
same,glycan array binding signal (z-score),[9],-0.71
same,glycan array binding signal (z-score),GlcNAc(b1-3)GalNAc,-0.476
same,glycan array binding signal (z-score),GlcNAc(b1-3)Man,-0.618
same,glycan array binding signal (z-score),[10],-0.577
same,glycan array binding signal (z-score),[11],-0.217
same,glycan array binding signal (z-score),[12],-0.441
same,glycan array binding signal (z-score),[13],-0.314
same,glycan array binding signal (z-score),GlcNAc(b1-4)GlcNAc,-0.55
same,glycan array binding signal (z-score),[14],-0.413
same,glycan array binding signal (z-score),[15],5.14
same,glycan array binding signal (z-score),[16],1.53
same,glycan array binding signal (z-score),[17],-0.675
